“And” between values parts separate entries of the source, which are not always exact repeats. Identical values can stand only once. Among all 290,000 compounds or so, about 2,100 (0.72%) were called active. The shares of active, inactive and inconclusive entries below differ from those in the screen. Calls come from the whole dose curve; as a rule, active = well fitted inhibition curve with a large enough effect; inconclusive = small, poorly fitted or top-dose-only effect, or effect the other way; inactive = flat fitted curve, though single readings scatter. A potency beside an inconclusive call is a rough fit, not a confirmed value.
Each compound was assayed against Fructose-bisphosphate aldolase (Giardia intestinalis (strain ATCC 50803 / WB clone C6)) (UniProt A8B2U2) (assay: qHTS Assay for Inhibitors of Fructose-1,6-bisphosphate Aldolase from Giardia Lamblia). Details: purified Giardia FBPA; activity, negative = inhibition: at 59.6 µM (top of the series) unless noted.
UniProt A8B2U2, sequence (A8B2U2 whole entry, looked up): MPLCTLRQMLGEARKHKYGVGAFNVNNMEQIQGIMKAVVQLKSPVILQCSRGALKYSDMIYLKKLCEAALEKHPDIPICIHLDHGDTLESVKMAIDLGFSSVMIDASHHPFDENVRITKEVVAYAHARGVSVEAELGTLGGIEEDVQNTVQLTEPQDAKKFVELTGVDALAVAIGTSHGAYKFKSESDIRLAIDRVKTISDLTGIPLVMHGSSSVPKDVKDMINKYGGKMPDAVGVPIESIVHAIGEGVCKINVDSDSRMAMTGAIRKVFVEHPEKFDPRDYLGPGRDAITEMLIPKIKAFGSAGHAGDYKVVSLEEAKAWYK
Summary of the method: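 Giardia FBPA (40 nM reagent) was preincubated 10 min at RT with compound (up to 57.5 uM final), then substrate plus GAPDH/TPI/NAD/arsenate coupling system with diaphorase/resazurin was added; resorufin fluorescence (525/598 nm) was read after 20 min.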
With `CC(C)C1Cc2c(C#N)c(N)sc(=S)c2CO1` (centres undefined) the Potency was inconclusive: 17.7 µM [inhibitor, partial curve].
`Cc1cc(C)c2c(CC(=O)NC3CCS(=O)(=O)C3)coc2c1` (centres undefined) was tested, and the “activity, negative = inhibition” value was inactive: -0.779%.
For `CCCCn1nc2cc(C(=O)NCCc3ccc(C)cc3)ccc2c1OCC`, the “activity, negative = inhibition” value was inactive: -0.0131%.
`c1ccc(OCC2CCNCC2)nc1` was tested, and the Potency was inconclusive: 12.6 µM [inhibitor, partial curve].
With `COc1ccc(N=C2O/C(=C/c3sc(=S)n(CC4CCCO4)c3O)N=C2C#N)cc1` (centres undefined) the Potency was inconclusive: 14.1 µM [inhibitor, partial curve].
In the case of `FC(F)(F)c1cc(CN2CCC3(CCNCC3)CC2)cc(C(F)(F)F)c1`, the “activity, negative = inhibition” value is reported as inactive: 6.73%.
With `O=c1cc(CSc2ccccc2)nc(-c2ccccc2)[nH]1` the “activity, negative = inhibition” value was inactive: 3.17%.
In the case of `CC(NC(=O)/C(=C/c1ccc(OC(F)F)cc1)c1ccccc1)c1ccccc1` (centres undefined), the “activity, negative = inhibition” value is reported as inactive: 6.52%.
With `COc1ccc2[nH]c(=O)c(CN(Cc3nnnn3Cc3ccco3)C3CCCCC3)cc2c1` the Potency was inconclusive: 15.8 µM [inhibitor, partial curve].
For `CC(C)C(=O)Nc1ncc(Cc2ccccc2Cl)s1`, the “activity, negative = inhibition” value was inactive: -0.566%.
For `COc1ccc(OC)c(/C=N/Nc2nncn2/N=C/c2cc(OC)ccc2OC)c1`, the Potency was inconclusive: 17.7 µM [inhibitor, single point].
For `c1ccc(CN2CCN(c3ncccn3)CC2)cc1`, the Potency was inconclusive: 15.8 µM [inhibitor, partial curve].
For `C/C(=C\CCC1(C)C2CC3C(C2)C31C)C(=O)O` (centres undefined), the Potency was inconclusive: 19.9 µM [activator, partial curve].
For `Cc1ccc(-c2cc(-c3ccc(F)cc3)c(C#N)c(N)n2)o1`, the Potency was inconclusive: 19.9 µM [inhibitor, partial curve].
`COC(=O)c1[nH]c(=O)c2ccccc2c1O` was tested, and the Potency was inconclusive: 11.2 µM [inhibitor, partial curve].
`CCOc1ccc(NC(=O)[C@@H](NC(=O)OCc2ccccc2)[C@@H](C)CC)cc1` was tested, and the “activity, negative = inhibition” value was inactive: 1.74%.
For `Cc1cc(C)c2sc(NC(=O)C3=COCCO3)nc2c1`, the Potency was inconclusive: 39.8 µM [inhibitor, single point].
In the case of `COc1cccc2c(=S)c(CCC(C)=O)c(C)[nH]c12`, the Potency is reported as inconclusive: 35.4 µM [inhibitor, single point].
With `O=C(CN1CCN(c2ccccc2F)CC1)c1ccc(O)c(O)c1` the Potency was inconclusive: 20 µM [inhibitor, single point].
`O=C(CSc1ccc(-c2ccccn2)nn1)c1ccc(F)cc1` was tested, and the Potency was inconclusive: 28.1 µM [inhibitor, single point].
With `Cc1ccc(-c2nc(Nc3cccc(C)c3)sc2CC(=O)O)cc1` the Potency was inconclusive: 15.8 µM [inhibitor, single point].
With `O=C1c2ccccc2NC(c2cn[nH]c2-c2ccc(Cl)cc2)N1O` (centres undefined) the Potency was inconclusive: 9.98 µM [inhibitor, partial curve].
With `Cc1cc(-c2nnc(CCC(=O)NC(Cc3ccccc3)c3ccccc3)o2)no1` (centres undefined) the Potency was inconclusive: 7.06 µM [inhibitor, single point].
`COc1cc(C(c2nnnn2C2CCCC2)N2CCc3ccccc3C2)ccc1O` (centres undefined) was tested, and the Potency was inconclusive: 17.7 µM [inhibitor, single point].
With `Cc1c(C(=O)NCc2ccco2)sc2nc(-c3ccccc3)cn12` the “activity, negative = inhibition” value was inactive: 6.23%.
With `COC(=O)c1cc2c(cc1N)OCCO2` the Potency was inconclusive: 14.1 µM [inhibitor, partial curve].
For `Cc1cccc(N2CCN(C(=O)C3COc4ccccc4O3)CC2)c1C` (centres undefined), the “activity, negative = inhibition” value was inactive: 3.83%.
With `O=C1NC(=S)NC(=O)C1=Cc1cccc2cc3ccccc3cc12` the Potency was inconclusive: 28.1 µM [inhibitor, single point].
In the case of `CC1(OC(=O)C2CCCC2)C(=O)C=C2C=C(c3ccsc3)N(C3CCCC3)C=C2C1=O` (centres undefined), the Potency is reported as inconclusive: 251 nM [inhibitor, full curve] and inconclusive: 446 nM [inhibitor, full curve].
For `O=C(NCc1ccccc1)c1c[nH]c2ccc(S(=O)(=O)Nc3ccc4c(c3)OCCO4)cc2c1=O`, the “activity, negative = inhibition” value was inactive: -5.14%.
In the case of `CC(=O)Nc1ccc(S(=O)(=O)NNC(=O)C(=O)NNc2ccccn2)cc1`, the Potency is reported as inconclusive: 3.15 µM [inhibitor, partial curve, poor fit].
In the case of `Cc1cc(C)c(C(=O)COC(=O)c2ccc([N+](=O)[O-])o2)cc1C`, the Potency is reported as inconclusive: 15.8 µM [inhibitor, partial curve].
In the case of `CCCn1c(NC(=O)c2cccc(C)c2C)nc2ccccc21`, the Potency is reported as inconclusive: 35.4 µM [activator, single point].
With `Cc1ccc(-c2noc(CCC(=O)NCCN3CCc4ccccc4C3)n2)cc1` the Potency was inconclusive: 31.6 µM [inhibitor, single point].
`O=C(COc1ccc(Cl)cc1)Nc1nnc(-c2ccco2)o1` was tested, and the Potency was inconclusive: 31.5 µM [inhibitor, single point].
`COC(=O)[C@@H]1[C@@H]2C[C@H]3c4[nH]c5ccccc5c4CCN3C[C@@H]2CC[C@@H]1O` was tested, and the Potency was inconclusive: 7.92 µM [inhibitor, partial curve] and inconclusive: 14.1 µM [inhibitor, partial curve].
With `COc1ccccc1/C=N/Nc1cc(N(C)C)nc(N(C)C)n1` the Potency was inconclusive: 1.41 µM [inhibitor, partial curve].
For `NS(=O)(=O)c1ccc(NC(=S)NC(=O)c2ccc(-c3ccccc3)cc2)cc1`, the “activity, negative = inhibition” value was inactive: 11.8%.
`CCCN(CCC)CCCNC(=O)Cn1cnc2sc(C)c(S(=O)(=O)N3CCOCC3)c2c1=O` was tested, and the “activity, negative = inhibition” value was inactive: 3.99%.
In the case of `CCOC(=O)c1ccc(S(=O)(=O)N2CCN(CC(O)COc3ccc(C#N)cc3)CC2)cc1` (centres undefined), the Potency is reported as inconclusive: 15.8 µM [inhibitor, partial curve].
`CCc1ccc(OCCNC(=O)OCc2ccccc2)cc1` was tested, and the “activity, negative = inhibition” value was inactive: -3.44%.
With `CC1CCN(CCCCOc2ccccc2[N+](=O)[O-])CC1` the Potency was inconclusive: 22.3 µM [inhibitor, partial curve].
For `COc1cc(OC)c(OC)cc1/C=N/NC(=S)NCCN1CCOCC1`, the Potency was inconclusive: 17.7 µM [inhibitor, partial curve].
`CCCN(CCC)S(=O)(=O)c1ccc(C(=O)Nc2nnc(COC)o2)cc1` was tested, and the Potency was inconclusive: 25.1 µM [inhibitor, single point].
With `CC12CN3CC(C)(CN(C1)C3c1ccc3ccccc3c1O)C2=O` (centres undefined) the Potency was active: 12.6 µM.
In the case of `COc1ccccc1NS(=O)(=O)c1ccc(O)c(NC(=S)NCC2CCCO2)c1` (centres undefined), the Potency is reported as inconclusive: 17.7 µM [inhibitor, single point].
In the case of `CC(C)CNc1nc(=S)nc(N(C)C)[nH]1`, the Potency is reported as inconclusive: 15.8 µM [inhibitor, single point].
`COCC(=O)OC/C(O)=C(\C#N)c1nc2ccccc2[nH]1` was tested, and the Potency was active: 15.8 µM.
With `Cc1ccc(C=Nc2cccnc2N)cc1` the Potency was inconclusive: 0.792 µM [inhibitor, full curve].
In the case of `CCOC(=O)/C(C#N)=C1\Nc2ccccc2N=C1N(CC(C)C)CC(C)C`, the “activity, negative = inhibition” value is reported as inactive: -7.77%.
`COc1cccc(-n2c(C)c3c(OC)cccc(=O)c3c2C)c1` was tested, and the Potency was inconclusive: 5.61 µM [inhibitor, partial curve].
In the case of `Clc1ccccc1OCCCCN1CCCCC1`, the Potency is reported as inconclusive: 28.2 µM [inhibitor, partial curve].
With `O=C(O)C(S)[C@@H](S)C(=O)O` (some centres undefined) the Potency was inconclusive: 9.98 µM [inhibitor, partial curve].
In the case of `CN(C(=O)c1cc2n(n1)C(C(F)(F)F)CC(c1ccco1)N2)c1ccccc1` (centres undefined), the Potency is reported as inconclusive: 15.8 µM [inhibitor, partial curve].
`Cc1ccc(NC(=O)c2ccc3nc[nH]c3c2)cc1C` was tested, and the “activity, negative = inhibition” value was inactive: 3.97%.
For `COc1cc(OC)c2c(O)c3c(c(-c4c5c(c(O)c6c(OC)cc(OC)cc46)CO[C@@H](C)[C@H]5O)c2c1)[C@H](O)[C@H](C)OC3`, the Potency was inconclusive: 1.99 µM [inhibitor, full curve, poor fit].
`Cc1c(C(=O)NC(C)C)oc2c1-c1[nH]ncc1CC2` was tested, and the Potency was inconclusive: 2.81 µM [inhibitor, full curve, poor fit].
In the case of `Cc1ccc(CCN2CC(C(=O)NCCN3CCCCCC3)CC2=O)cc1` (centres undefined), the Potency is reported as inconclusive: 31.5 µM [inhibitor, single point].
In the case of `Cc1ccc2cc(N)ccc2n1`, the Potency is reported as inconclusive: 5.61 µM [inhibitor, partial curve].
In the case of `O=C(O)c1ccc(Cl)c(S(=O)(=O)Nc2ccc3[nH]c(=O)[nH]c3c2)c1`, the Potency is reported as inconclusive: 2.81 µM [inhibitor, partial curve].
In the case of `CC(C)C(=O)OC/C(O)=C(\C#N)c1nc2ccccc2[nH]1`, the Potency is reported as active: 19.9 µM.
In the case of `CCC(=O)NC(c1ccc(C)cc1)c1cc([N+](=O)[O-])c2cccnc2c1O` (centres undefined), the Potency is reported as inconclusive: 44.6 µM [inhibitor, single point].
With `CCOC(=O)/C(C#N)=C/c1cn(CCC(=O)O)nc1-c1cccc(Br)c1` the Potency was inconclusive: 19.9 µM [activator, partial curve].
In the case of `Cc1ccc(C2C(C#N)=C(N)SC(N)=C2C#N)cc1`, the Potency is reported as inconclusive: 11.2 µM [inhibitor, partial curve].
In the case of `O=C1c2ccccc2NC(c2cccc([N+](=O)[O-])c2)N1O` (centres undefined), the Potency is reported as inconclusive: 22.4 µM [inhibitor, single point].
`Cc1cc(C)c2[nH]c(=O)c(CN(CC3CCCO3)C(=S)NCc3ccco3)cc2c1` (centres undefined) was tested, and the “activity, negative = inhibition” value was inactive: -0.195%.
`Cc1ccc(C=C2C(Cl)=C(Cl)C(Cl)=C2Cl)cc1` was tested, and the Potency was active: 15.8 µM.
`Cc1cc(=O)[nH]c(NN=C2C3CC4CC(C3)CC2C4)n1` was tested, and the Potency was inconclusive: 17.7 µM [inhibitor, single point].
With `CCOCCCN(C(=O)Cn1nnc2ccccc21)C(C(=O)NCc1ccco1)c1ccncc1` (centres undefined) the “activity, negative = inhibition” value was inactive: -25.5%.

— PubChem BioAssay AID2451 (National Center for Advancing Translational Sciences (NCATS), 2010)
% is set by controls: 0 for no effect and ±100 for the full control effect; potency is the fitted concentration of half-maximal effect; tags give direction and shape of the fitted curve.
Note: nearly all actives have a fitted effect of over 55% in size.
